Laboratory results published in the supplement of paper PMC4967469.
The IC50 comes from the fitted curve, where viability falls to half of the control; a limit (>, <) means that the fit lies beyond the doses tested. For AUC the same curve is integrated over the 256-fold range of doses and scaled to a fraction; values near 1 show little effect. For part of these data: Where the top dose is marked as inferred, it is not printed in the source and was worked back from the curve model.

How the values were obtained:
Assay in all cases: Viability of human cancer cell lines after 72 h of drug (GDSC screen)
[1] = compound: CO[C@H]1C[C@@H]2CC[C@@H](C)[C@@](O)(O2)C(=O)C(=O)N2CCCC[C@H]2C(=O)O[C@H]([C@H](C)C[C@@H]2CC[C@@H](OC(=O)C(C)(CO)CO)[C@H](OC)C2)CC(=O)[C@H](C)/C=C(\C)[C@@H](O)[C@@H](OC)C(=O)[C@H](C)C[C@H](C)/C=C/C=C/C=C/1C [Temsirolimus]; settings: top dose 0.2 µM
Method: (§1)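 Human cancer cell lines in 384-well plates, medium with 10% serum, drug for 72 h over a 256-fold dose range (nine 2-fold or five 4-fold steps up to the top dose). Adherent lines were fixed and stained with the nucleic acid dye Syto60, suspension lines read with resazurin; signal relative to control wells, capped at 0 and 100%. One two-parameter sigmoid per drug and line, fitted in a mixed model over all curves with the slope shared within a line.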

[2] = compound: CC(=O)O[C@@H]1[C@@H](OC(C)=O)[C@@H](O)[C@H](Oc2c(-c3ccc(O)cc3)oc3cc(O)cc(O)c3c2=O)O[C@H]1C [SL 0101-1]; settings: top dose 10 µM; top dose inferred
Method: as §1

[3] = compound: C=CC(=O)Nc1ccc(C(=O)c2sc(Nc3ccc(N4CCN(C)CC4)cc3OC)nc2N)cc1 [XMD15-27]; settings: top dose 10.24 µM; top dose inferred
Method: as §1

SAS (head and neck, adherent)
AUC [1]: 0.913
IC50 [1]: > 0.2 µM
AUC [2]: 0.962
IC50 [2]: > 10 µM
AUC [3]: 0.976
IC50 [3]: > 10.2 µM

A4-Fuk (B-cell lymphoma, suspension)
AUC [1]: 0.752
IC50 [1]: 0.0692 µM
AUC [2]: 0.982
IC50 [2]: > 10 µM
AUC [3]: 0.97
IC50 [3]: > 10.2 µM

CAL-27 (head and neck, adherent)
AUC [1]: 0.759
IC50 [1]: 0.0713 µM
AUC [2]: 0.986
IC50 [2]: > 10 µM
AUC [3]: 0.986
IC50 [3]: > 10.2 µM

L-540 (Hodgkin lymphoma, suspension)
AUC [1]: 0.55
IC50 [1]: 0.0169 µM
AUC [2]: 0.99
IC50 [2]: > 10 µM
AUC [3]: 0.972
IC50 [3]: > 10.2 µM

VA-ES-BJ (soft tissue, adherent)
AUC [1]: 0.44
IC50 [1]: 0.00848 µM
AUC [2]: 0.966
IC50 [2]: > 10 µM
AUC [3]: 0.986
IC50 [3]: > 10.2 µM

NCI-H2023 (lung adenocarcinoma, adherent)
AUC [1]: 0.799
IC50 [1]: 0.125 µM
AUC [2]: 0.944
IC50 [2]: > 10 µM
AUC [3]: 0.979
IC50 [3]: > 10.2 µM

IGR-37 (melanoma, adherent)
AUC [1]: 0.535
IC50 [1]: 0.0154 µM
AUC [2]: 0.988
IC50 [2]: > 10 µM
AUC [3]: 0.989
IC50 [3]: > 10.2 µM

RERF-LC-KJ (lung adenocarcinoma, adherent)
AUC [1]: 0.788
IC50 [1]: 0.0903 µM
AUC [2]: 0.987
IC50 [2]: > 10 µM
AUC [3]: 0.987
IC50 [3]: > 10.2 µM

MMAC-SF (melanoma, adherent)
AUC [1]: 0.93
IC50 [1]: > 0.2 µM
AUC [2]: 0.986
IC50 [2]: > 10 µM
AUC [3]: 0.987
IC50 [3]: > 10.2 µM

SCH (stomach, adherent)
AUC [1]: 0.811
IC50 [1]: 0.116 µM
AUC [2]: 0.985
IC50 [2]: > 10 µM
AUC [3]: 0.988
IC50 [3]: > 10.2 µM

GI-ME-N (neuroblastoma, adherent)
AUC [1]: 0.761
IC50 [1]: 0.0961 µM
AUC [2]: 0.977
IC50 [2]: > 10 µM
AUC [3]: 0.923
IC50 [3]: > 10.2 µM

NCI-H322M (lung adenocarcinoma, suspension)
AUC [1]: 0.957
IC50 [1]: > 0.2 µM
AUC [2]: 0.943
IC50 [2]: > 10 µM
AUC [3]: 0.975
IC50 [3]: > 10.2 µM

SK-LMS-1 (soft tissue, adherent)
AUC [1]: 0.359
IC50 [1]: 0.00521 µM
AUC [2]: 0.987
IC50 [2]: > 10 µM
AUC [3]: 0.976
IC50 [3]: > 10.2 µM

HCC-44 (lung adenocarcinoma, adherent)
AUC [1]: 0.841
IC50 [1]: 0.134 µM
AUC [2]: 0.984
IC50 [2]: > 10 µM
AUC [3]: 0.97
IC50 [3]: > 10.2 µM

HCC38 (breast, adherent)
AUC [1]: 0.884
IC50 [1]: > 0.2 µM
AUC [2]: 0.98
IC50 [2]: > 10 µM
AUC [3]: 0.952
IC50 [3]: > 10.2 µM

RPMI-6666 (Hodgkin lymphoma, suspension)
AUC [1]: 0.753
IC50 [1]: 0.0793 µM
AUC [2]: 0.969
IC50 [2]: > 10 µM
AUC [3]: 0.933
IC50 [3]: > 10.2 µM

PE/CA-PJ15 (head and neck, adherent)
AUC [1]: 0.797
IC50 [1]: 0.103 µM
AUC [2]: 0.899
IC50 [2]: > 10 µM
AUC [3]: 0.985
IC50 [3]: > 10.2 µM

KYSE-410 (oesophagus, adherent)
AUC [1]: 0.347
IC50 [1]: 0.00457 µM
AUC [2]: 0.983
IC50 [2]: > 10 µM
AUC [3]: 0.982
IC50 [3]: > 10.2 µM

OVKATE (ovary, adherent)
AUC [1]: 0.844
IC50 [1]: > 0.2 µM
AUC [2]: 0.979
IC50 [2]: > 10 µM
AUC [3]: 0.979
IC50 [3]: > 10.2 µM

KS-1 (glioma, adherent)
AUC [1]: 0.644
IC50 [1]: 0.0346 µM
AUC [2]: 0.974
IC50 [2]: > 10 µM
AUC [3]: 0.92
IC50 [3]: > 10.2 µM

KCL-22 (chronic myeloid leukaemia, suspension)
AUC [1]: 0.918
IC50 [1]: > 0.2 µM
AUC [2]: 0.991
IC50 [2]: > 10 µM
AUC [3]: 0.944
IC50 [3]: > 10.2 µM

ES4 (Ewing sarcoma, adherent)
AUC [1]: 0.58
IC50 [1]: 0.0214 µM
AUC [2]: 0.956
IC50 [2]: > 10 µM
AUC [3]: 0.959
IC50 [3]: > 10.2 µM

SK-UT-1 (soft tissue, adherent)
AUC [1]: 0.684
IC50 [1]: 0.0387 µM
AUC [2]: 0.989
IC50 [2]: > 10 µM
AUC [3]: 0.989
IC50 [3]: > 10.2 µM

PA-TU-8902 (pancreas, adherent)
AUC [1]: 0.807
IC50 [1]: 0.124 µM
AUC [2]: 0.977
IC50 [2]: > 10 µM
AUC [3]: 0.984
IC50 [3]: > 10.2 µM

NCI-H650 (lung adenocarcinoma, adherent)
AUC [1]: 0.956
IC50 [1]: > 0.2 µM
AUC [2]: 0.974
IC50 [2]: > 10 µM
AUC [3]: 0.983
IC50 [3]: > 10.2 µM

CaR-1 (large intestine, adherent)
AUC [1]: 0.934
IC50 [1]: > 0.2 µM
AUC [2]: 0.955
IC50 [2]: > 10 µM
AUC [3]: 0.978
IC50 [3]: > 10.2 µM

ME-180 (cervix, adherent)
AUC [1]: 0.588
IC50 [1]: 0.022 µM
AUC [2]: 0.982
IC50 [2]: > 10 µM
AUC [3]: 0.967
IC50 [3]: > 10.2 µM

8305C (thyroid, adherent)
AUC [1]: 0.802
IC50 [1]: 0.136 µM
AUC [2]: 0.976
IC50 [2]: > 10 µM
AUC [3]: 0.982
IC50 [3]: > 10.2 µM

SW48 (large intestine, adherent)
AUC [1]: 0.922
IC50 [1]: > 0.2 µM
AUC [2]: 0.945
IC50 [2]: > 10 µM
AUC [3]: 0.987
IC50 [3]: > 10.2 µM

MFE-280 (endometrium, adherent)
AUC [1]: 0.964
IC50 [1]: > 0.2 µM
AUC [2]: 0.982
IC50 [2]: > 10 µM
AUC [3]: 0.942
IC50 [3]: > 10.2 µM

SW1783 (glioma, adherent)
AUC [1]: 0.913
IC50 [1]: > 0.2 µM
AUC [2]: 0.983
IC50 [2]: > 10 µM
AUC [3]: 0.99
IC50 [3]: > 10.2 µM

SH-4 (melanoma, adherent)
AUC [1]: 0.792
IC50 [1]: 0.155 µM
AUC [2]: 0.975
IC50 [2]: > 10 µM
AUC [3]: 0.968
IC50 [3]: > 10.2 µM

SJRH30 (rhabdomyosarcoma, adherent)
AUC [1]: 0.905
IC50 [1]: > 0.2 µM
AUC [2]: 0.984
IC50 [2]: > 10 µM
AUC [3]: 0.894
IC50 [3]: > 10.2 µM

NCI-H847 (small cell lung carcinoma, adherent)
AUC [1]: 0.989
IC50 [1]: > 0.2 µM
AUC [2]: 0.993
IC50 [2]: > 10 µM
AUC [3]: 0.98
IC50 [3]: > 10.2 µM

NCI-H2405 (lung adenocarcinoma, adherent)
AUC [1]: 0.969
IC50 [1]: > 0.2 µM
AUC [2]: 0.979
IC50 [2]: > 10 µM
AUC [3]: 0.986
IC50 [3]: > 10.2 µM

NCI-H1304 (small cell lung carcinoma, suspension)
AUC [1]: 0.956
IC50 [1]: > 0.2 µM
AUC [2]: 0.964
IC50 [2]: > 10 µM
AUC [3]: 0.988
IC50 [3]: > 10.2 µM
